{
  "source": "the supplement of paper PMC8728848",
  "assay_in_all_cases": "glycan array binding signal (z-score within array); higher = stronger binding",
  "details_in_all_cases": "glycan notation: IUPAC condensed, linker removed",
  "key": {"[1]": {"biological_target": "Fuc(a1-2)Gal(b1-4)GlcNAc(b1-3)Gal(b1-4)GlcNAc(b1-3)Gal(b1-4)GlcNAc", "summary_of_the_method": "(§1)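 From the Consortium for Functional Glycomics database, 3228 arrays were curated, keeping only those whose protein sequence was available. Binding is given as a within-array Z-score averaged across arrays sharing a protein sequence and across linkers. Negative Z-scores can be read as non-binding.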"}, "[2]": {"biological_target": "Fuc(a1-2)Gal(b1-4)GlcNAc(b1-3)GalNAc", "summary_of_the_method": "as §1"}, "[3]": {"biological_target": "Fuc(a1-2)Gal(b1-4)GlcNAc(b1-3)[Fuc(a1-2)Gal(b1-4)GlcNAc(b1-6)]GalNAc", "summary_of_the_method": "as §1"}, "[4]": {"biological_target": "Fuc(a1-2)Gal(b1-4)GlcNAc(b1-3)[Fuc(a1-3)[Gal(b1-4)]GlcNAc(b1-6)]Gal(b1-4)Glc", "summary_of_the_method": "as §1"}, "[5]": {"biological_target": "Fuc(a1-2)Gal(b1-4)GlcNAc(b1-6)GalNAc", "summary_of_the_method": "as §1"}, "[6]": {"biological_target": "Fuc(a1-2)Gal(b1-4)GlcNAc6S", "summary_of_the_method": "as §1"}, "[7]": {"biological_target": "Fuc(a1-2)Gal(b1-4)[Fuc(a1-3)]GlcNAc", "summary_of_the_method": "as §1"}, "[8]": {"biological_target": "Fuc(a1-2)Gal(b1-4)[Fuc(a1-3)]GlcNAc(b1-2)Man(a1-3)[Fuc(a1-2)Gal(b1-4)[Fuc(a1-3)]GlcNAc(b1-2)Man(a1-6)]Man(b1-4)GlcNAc(b1-4)[Fuc(a1-6)]GlcNAc", "summary_of_the_method": "as §1"}, "[9]": {"biological_target": "Fuc(a1-2)Gal(b1-4)[Fuc(a1-3)]GlcNAc(b1-2)[Fuc(a1-2)Gal(b1-4)[Fuc(a1-3)]GlcNAc(b1-4)]Man(a1-3)[Fuc(a1-2)Gal(b1-4)[Fuc(a1-3)]GlcNAc(b1-2)Man(a1-6)]Man(b1-4)GlcNAc(b1-4)GlcNAc", "summary_of_the_method": "as §1"}, "[10]": {"biological_target": "Fuc(a1-2)Gal(b1-4)[Fuc(a1-3)]GlcNAc(b1-3)Gal(b1-4)[Fuc(a1-3)]GlcNAc", "summary_of_the_method": "as §1"}, "[11]": {"biological_target": "Fuc(a1-2)Gal(b1-4)[Fuc(a1-3)]GlcNAc(b1-3)Gal(b1-4)[Fuc(a1-3)]GlcNAc(b1-3)Gal(b1-4)[Fuc(a1-3)]GlcNAc", "summary_of_the_method": "as §1"}, "[12]": {"biological_target": "Fuc(a1-2)Gal(b1-4)[Fuc(a1-3)]GlcNAc(b1-3)GalNAc", "summary_of_the_method": "as §1"}, "[13]": {"biological_target": "Fuc(a1-2)Gal(b1-4)[Fuc(a1-3)]GlcNAc(b1-3)[Neu5Ac(a2-6)Gal(b1-4)GlcNAc(b1-6)]Gal(b1-4)Glc", "summary_of_the_method": "as §1"}, "[14]": {"biological_target": "Fuc(a1-2)Gal3S(b1-4)GlcNAc", "summary_of_the_method": "as §1"}, "[15]": {"biological_target": "Fuc(a1-2)Gal6S(b1-3)GlcNAc", "summary_of_the_method": "as §1"}, "[16]": {"biological_target": "Fuc(a1-2)Gal6S(b1-3)GlcNAc6S", "summary_of_the_method": "as §1"}, "Fuc(a1-2)Gal6S(b1-4)Glc": {"biological_target": "Fuc(a1-2)Gal6S(b1-4)Glc", "summary_of_the_method": "as §1"}, "[17]": {"biological_target": "Fuc(a1-2)Gal6S(b1-4)Glc6S", "summary_of_the_method": "as §1"}, "Fuc(a1-2)[Gal(a1-3)]Gal": {"biological_target": "Fuc(a1-2)[Gal(a1-3)]Gal", "summary_of_the_method": "as §1"}, "[18]": {"biological_target": "Fuc(a1-2)[Gal(a1-3)]Gal(b1-3)GalNAc", "summary_of_the_method": "as §1"}, "[19]": {"biological_target": "Fuc(a1-2)[Gal(a1-3)]Gal(b1-3)GalNAc(b1-3)Gal(a1-4)Gal(b1-4)Glc", "summary_of_the_method": "as §1"}, "[20]": {"biological_target": "Fuc(a1-2)[Gal(a1-3)]Gal(b1-3)GlcNAc", "summary_of_the_method": "as §1"}, "[21]": {"biological_target": "Fuc(a1-2)[Gal(a1-3)]Gal(b1-3)GlcNAc(b1-2)Man(a1-3)[Fuc(a1-2)[Gal(a1-3)]Gal(b1-3)GlcNAc(b1-2)Man(a1-6)]Man(b1-4)GlcNAc(b1-4)GlcNAc", "summary_of_the_method": "as §1"}, "[22]": {"biological_target": "Fuc(a1-2)[Gal(a1-3)]Gal(b1-3)GlcNAc(b1-2)Man(a1-3)[Fuc(a1-2)[Gal(a1-3)]Gal(b1-3)GlcNAc(b1-2)Man(a1-6)]Man(b1-4)GlcNAc(b1-4)[Fuc(a1-6)]GlcNAc", "summary_of_the_method": "as §1"}, "[23]": {"biological_target": "Fuc(a1-2)[Gal(a1-3)]Gal(b1-3)GlcNAc(b1-3)GalNAc", "summary_of_the_method": "as §1"}, "[24]": {"biological_target": "Fuc(a1-2)[Gal(a1-3)]Gal(b1-3)GlcNAc(b1-6)GalNAc", "summary_of_the_method": "as §1"}, "[25]": {"biological_target": "Fuc(a1-2)[Gal(a1-3)]Gal(b1-4)Glc", "summary_of_the_method": "as §1"}, "[26]": {"biological_target": "Fuc(a1-2)[Gal(a1-3)]Gal(b1-4)GlcNAc", "summary_of_the_method": "as §1"}, "[27]": {"biological_target": "Fuc(a1-2)[Gal(a1-3)]Gal(b1-4)GlcNAc(b1-2)Man", "summary_of_the_method": "as §1"}, "[28]": {"biological_target": "Fuc(a1-2)[Gal(a1-3)]Gal(b1-4)GlcNAc(b1-2)Man(a1-3)[Fuc(a1-2)[Gal(a1-3)]Gal(b1-4)GlcNAc(b1-2)Man(a1-6)]Man(b1-4)GlcNAc(b1-4)GlcNAc", "summary_of_the_method": "as §1"}},
  "note": "The list shows a part of the results.",
  "data": [
    {"binder": "rCnSL-proB (Clitocybe nebularis) (protein) PTFSPIFALLAFLPFGTLASLLPQTQLVFRINPNLPGPNDVFVGYRGTNNVVGAIYERDGIKDTPMNNGADAELGPGSYITDDLFTAQIFASGSAGNNPGTTATVCKIYADGVQWRGAPKGYLPVLYFGNGQAAEQTRQTYLQGLDIPGTAIRFANLAKTPNQGPTAPRQMVVPSGGLQTLLKASCFPANHAALPQVLSYFNVRAALPPGWNIRTGPEFPNWTN", "values": [
      {"measurement": "glycan array binding signal (z-score)", "setting": "[1]", "result": -0.076},
      {"measurement": "glycan array binding signal (z-score)", "setting": "[2]", "result": -0.693},
      {"measurement": "glycan array binding signal (z-score)", "setting": "[3]", "result": -0.259},
      {"measurement": "glycan array binding signal (z-score)", "setting": "[4]", "result": 0.483},
      {"measurement": "glycan array binding signal (z-score)", "setting": "[5]", "result": -0.457},
      {"measurement": "glycan array binding signal (z-score)", "setting": "[6]", "result": -0.44},
      {"measurement": "glycan array binding signal (z-score)", "setting": "[7]", "result": 0.228},
      {"measurement": "glycan array binding signal (z-score)", "setting": "[8]", "result": 0.321},
      {"measurement": "glycan array binding signal (z-score)", "setting": "[9]", "result": 1.38},
      {"measurement": "glycan array binding signal (z-score)", "setting": "[10]", "result": 0.072},
      {"measurement": "glycan array binding signal (z-score)", "setting": "[11]", "result": 0.04},
      {"measurement": "glycan array binding signal (z-score)", "setting": "[12]", "result": 0.251},
      {"measurement": "glycan array binding signal (z-score)", "setting": "[13]", "result": -0.539},
      {"measurement": "glycan array binding signal (z-score)", "setting": "[14]", "result": -0.528},
      {"measurement": "glycan array binding signal (z-score)", "setting": "[15]", "result": -0.725},
      {"measurement": "glycan array binding signal (z-score)", "setting": "[16]", "result": 0.11},
      {"measurement": "glycan array binding signal (z-score)", "setting": "Fuc(a1-2)Gal6S(b1-4)Glc", "result": -0.455},
      {"measurement": "glycan array binding signal (z-score)", "setting": "[17]", "result": -0.918},
      {"measurement": "glycan array binding signal (z-score)", "setting": "Fuc(a1-2)[Gal(a1-3)]Gal", "result": -0.602},
      {"measurement": "glycan array binding signal (z-score)", "setting": "[18]", "result": 0.198},
      {"measurement": "glycan array binding signal (z-score)", "setting": "[19]", "result": -0.397},
      {"measurement": "glycan array binding signal (z-score)", "setting": "[20]", "result": -0.113},
      {"measurement": "glycan array binding signal (z-score)", "setting": "[21]", "result": -0.043},
      {"measurement": "glycan array binding signal (z-score)", "setting": "[22]", "result": 0.259},
      {"measurement": "glycan array binding signal (z-score)", "setting": "[23]", "result": -0.457},
      {"measurement": "glycan array binding signal (z-score)", "setting": "[24]", "result": -0.311},
      {"measurement": "glycan array binding signal (z-score)", "setting": "[25]", "result": -0.068},
      {"measurement": "glycan array binding signal (z-score)", "setting": "[26]", "result": -0.77},
      {"measurement": "glycan array binding signal (z-score)", "setting": "[27]", "result": -0.166},
      {"measurement": "glycan array binding signal (z-score)", "setting": "[28]", "result": -0.255}
    ]}
  ]
}
